# Measurements from US20250263469A1 (HOSPITAL FOR SICK CHILDREN, published 2025).
# B1: MB 178 (other)
# chain 1: EIVMTQSPATLSVSPGERATLSCKASQSVSGTYLAWYQQKPGQAPRLLIYGASTRATGIPARFSGSGSGTEFTLTISSLQSEDFAVYYCLQTHSYPPTFGQGTKVEIKRTVAAPSVFIFPPSDEQLKSGTASVVCLLNNFYPREAKVQWKVDNALQSGNSQESVTEQDSKDSTYSLSSTLTLSKADYEKHKVYACEVTHQGLSSPVTKSFNRGECGGGGSGGGGSGGGGSGGGGSGGGGSGGGGSGGGGSGGGGSGGGGSGGGGSGGGGSGGGGSGGGGSGGGGSQVQLVQSGAEVKKPGASVKVSCKASGYTFTDYHMHWVRQAPGQGLEWMGWINPNSGGTNYAQKFQGRVTMTRDTSTSTVYMELSSLRSEDTAVYYCARDISSWYEITKFDPWGQGTLVTVSSASTKGPSVFPLAPSSKSTSGGTAALGCLVKDYFPEPVTVSWNSGALTSGVHTFPAVLQSSGLYSLSSVVTVPSSSLGTQTYICNVNHKPSNTKVDKKVEPKSCGGGGSGGGGSGGGGSGGGGSGGGG[not shown - about 200 residues]
# chain 2: [not shown - human IgG1 Fc]GGGGSGGGGSGGGGSGGGGSGGGGSGGGGSGGGGSGGGGSGGGGSGGGGSGGGGSGGGGSGGGGSGGGGS[not shown - human IgG1 Fc]GGGGSGGGGSGGGGSGGGGSGGGGSGGSSQIRQNYSTDVEAAVNSLVNLYLQASYTYLSLGFYFDRDDVALEGVSHFFRELAEEKREGYERLLKMQNQRGGRALFQDIKKPAEDEW
# chain 3: EIVMTQSPATLSVSPGERATLSCKASQSVSGTYLAWYQQKPGQAPRLLIYGASTRATGIPARFSGSGSGTEFTLTISSLQSEDFAVYYCLQTHSYPPTFGQGTKVEIKRTVAAPSVFIFPPSDEQLKSGTASVVCLLNNFYPREAKVQWKVDNALQSGNSQESVTEQDSKDSTYSLSSTLTLSKADYEKHKVYACEVTHQGLSSPVTKSFNRGECGGGGSGGGGSGGGGSGGGGSGGGGSGGGGSGGGGSGGGGSGGGGSGGGGSGGGGSGGGGSGGGGSGGGGSQVQLVQSGAEVKKPGASVKVSCKASGYTFTDYHMHWVRQAPGQGLEWMGWINPNSGGTNYAQKFQGRVTMTRDTSTSTVYMELSSLRSEDTAVYYCARDISSWYEITKFDPWGQGTLVTVSSASTKGPSVFPLAPSSKSTSGGTAALGCLVKDYFPEPVTVSWNSGALTSGVHTFPAVLQSSGLYSLSSVVTVPSSSLGTQTYICNVNHKPSNTKVDKKVEPKSCGGGGSGGGGSGGGGSGGGGSGGGGSGKTPDAMKAAMALEKKLNQALLDLHALGSARTDPHLCDFLETHFLDEEVKLIKKMGDHLTNLHRLGGPEAGLGEYLFERLTLRHD
# B2: MB 128 (other)
# chain 1: DIQMTQSPSSLSASVGDRVTITCRASQNISRYLNWYQQKPGKAPKLLIYDASNLETGVPSRFSGSGSGTDFTLTISSLQPEDFATYYCQQANGFPPTFGQGTKLEIKRTVAAPSVFIFPPSDEQLKSGTASVVCLLNNFYPREAKVQWKVDNALQSGNSQESVTEQDSKDSTYSLSSTLTLSKADYEKHKVYACEVTHQGLSSPVTKSFNRGECGGGGSGGGGSGGGGSGGGGSGGGGSGGGGSGGGGSGGGGSGGGGSGGGGSGGGGSGGGGSGGGGSGGGGSQVQLVQSGAEVKKPGASVKVSCKASGYTFTHYYMHWVRQAPGQGLEWMGIINPSSSSASYSQKFQGRVTMTRDTSTSTVYMELSSLRSEDTAVYYCARDGRYGSGSYPFDYWGQGTLVTVSSASTKGPSVFPLAPSSKSTSGGTAALGCLVKDYFPEPVTVSWNSGALTSGVHTFPAVLQSSGLYSLSSVVTVPSSSLGTQTYICNVNHKPSNTKVDKKVEPKSCGGGGSGGGGSGGGGSGGGGSGGGG[not shown - about 200 residues]
# chain 2: B1 chain 2
# chain 3: DIQMTQSPSSLSASVGDRVTITCRASQNISRYLNWYQQKPGKAPKLLIYDASNLETGVPSRFSGSGSGTDFTLTISSLQPEDFATYYCQQANGFPPTFGQGTKLEIKRTVAAPSVFIFPPSDEQLKSGTASVVCLLNNFYPREAKVQWKVDNALQSGNSQESVTEQDSKDSTYSLSSTLTLSKADYEKHKVYACEVTHQGLSSPVTKSFNRGECGGGGSGGGGSGGGGSGGGGSGGGGSGGGGSGGGGSGGGGSGGGGSGGGGSGGGGSGGGGSGGGGSGGGGSQVQLVQSGAEVKKPGASVKVSCKASGYTFTHYYMHWVRQAPGQGLEWMGIINPSSSSASYSQKFQGRVTMTRDTSTSTVYMELSSLRSEDTAVYYCARDGRYGSGSYPFDYWGQGTLVTVSSASTKGPSVFPLAPSSKSTSGGTAALGCLVKDYFPEPVTVSWNSGALTSGVHTFPAVLQSSGLYSLSSVVTVPSSSLGTQTYICNVNHKPSNTKVDKKVEPKSCGGGGSGGGGSGGGGSGGGGSGGGGSGKTPDAMKAAMALEKKLNQALLDLHALGSARTDPHLCDFLETHFLDEEVKLIKKMGDHLTNLHRLGGPEAGLGEYLFERLTLRHD
# B3: MB 80 (other)
# chain 1: [not shown - about 200 residues]GGGGSGGGGSGGGGSGGGGSGGGGSGGGGSGGGGSGGGGSGGGGSGGGGSGGGGSGGGGSGGGGSGGGGSQVQLVQSGAEVKKPGSSVKVSCKASGGTFNRYAFSWVRQAPGQGLEWMGGIIPIFGTANYAQKFQGRVTITADESTSTAYMELSSLRSEDTAVYYCARSTRELPEVVDWYFDLWGRGTLVTVSSASTKGPSVFPLAPSSKSTSGGTAALGCLVKDYFPEPVTVSWNSGALTSGVHTFPAVLQSSGLYSLSSVVTVPSSSLGTQTYICNVNHKPSNTKVDKKVEPKSCGGGGSGGGGSGGGGSGGGGSGGGG[not shown - about 200 residues]
# chain 2: B1 chain 2
# chain 3: [not shown - about 200 residues]GGGGSGGGGSGGGGSGGGGSGGGGSGGGGSGGGGSGGGGSGGGGSGGGGSGGGGSGGGGSGGGGSGGGGSQVQLVQSGAEVKKPGSSVKVSCKASGGTFNRYAFSWVRQAPGQGLEWMGGIIPIFGTANYAQKFQGRVTITADESTSTAYMELSSLRSEDTAVYYCARSTRELPEVVDWYFDLWGRGTLVTVSSASTKGPSVFPLAPSSKSTSGGTAALGCLVKDYFPEPVTVSWNSGALTSGVHTFPAVLQSSGLYSLSSVVTVPSSSLGTQTYICNVNHKPSNTKVDKKVEPKSCGGGGSGGGGSGGGGSGGGGSGGGGSGKTPDAMKAAMALEKKLNQALLDLHALGSARTDPHLCDFLETHFLDEEVKLIKKMGDHLTNLHRLGGPEAGLGEYLFERLTLRHD
# B4: MB 160 (other)
# chain 1: DIQMTQSPSSLSASVGDRVTITCRASQSVSSWLAWYQQKPGKAPKLLIYAASSLQSGVPSRFSGSGSGTDFTLTISSLQPEDFATYYCQQGYTTPYTFGQGTKLEIKRTVAAPSVFIFPPSDEQLKSGTASVVCLLNNFYPREAKVQWKVDNALQSGNSQESVTEQDSKDSTYSLSSTLTLSKADYEKHKVYACEVTHQGLSSPVTKSFNRGECGGGGSGGGGSGGGGSGGGGSGGGGSGGGGSGGGGSGGGGSGGGGSGGGGSGGGGSGGGGSGGGGSGGGGSQVQLVQSGAEVKKPGASVKVSCKASGYTFTGHDMHWVRQAPGQGLEWMGIINPSGGSTSYAQKFQGRVTMTRDTSTSTVYMELSSLRSEDTAVYYCARANSLRYYYGMDVWGQGTMVTVSSASTKGPSVFPLAPSSKSTSGGTAALGCLVKDYFPEPVTVSWNSGALTSGVHTFPAVLQSSGLYSLSSVVTVPSSSLGTQTYICNVNHKPSNTKVDKKVEPKSCGGGGSGGGGSGGGGSGGGGSGGGG[not shown - about 200 residues]
# chain 2: B1 chain 2
# chain 3: DIQMTQSPSSLSASVGDRVTITCRASQSVSSWLAWYQQKPGKAPKLLIYAASSLQSGVPSRFSGSGSGTDFTLTISSLQPEDFATYYCQQGYTTPYTFGQGTKLEIKRTVAAPSVFIFPPSDEQLKSGTASVVCLLNNFYPREAKVQWKVDNALQSGNSQESVTEQDSKDSTYSLSSTLTLSKADYEKHKVYACEVTHQGLSSPVTKSFNRGECGGGGSGGGGSGGGGSGGGGSGGGGSGGGGSGGGGSGGGGSGGGGSGGGGSGGGGSGGGGSGGGGSGGGGSQVQLVQSGAEVKKPGASVKVSCKASGYTFTGHDMHWVRQAPGQGLEWMGIINPSGGSTSYAQKFQGRVTMTRDTSTSTVYMELSSLRSEDTAVYYCARANSLRYYYGMDVWGQGTMVTVSSASTKGPSVFPLAPSSKSTSGGTAALGCLVKDYFPEPVTVSWNSGALTSGVHTFPAVLQSSGLYSLSSVVTVPSSSLGTQTYICNVNHKPSNTKVDKKVEPKSCGGGGSGGGGSGGGGSGGGGSGGGGSGKTPDAMKAAMALEKKLNQALLDLHALGSARTDPHLCDFLETHFLDEEVKLIKKMGDHLTNLHRLGGPEAGLGEYLFERLTLRHD
# B5: MB 108 (other)
# chain 1: DIQMTQSPSSLSASVGDRVTITCRASQVITNNLAWYQQKPGKAPKLLIYDASTLETGVPSRFSGSGSGTDFTLTISSLQPEDFATYYCQQSYTFPYTFGQGTKVEIKRTVAAPSVFIFPPSDEQLKSGTASVVCLLNNFYPREAKVQWKVDNALQSGNSQESVTEQDSKDSTYSLSSTLTLSKADYEKHKVYACEVTHQGLSSPVTKSFNRGECGGGGSGGGGSGGGGSGGGGSGGGGSGGGGSGGGGSGGGGSGGGGSGGGGSGGGGSGGGGSGGGGSGGGGSQVQLVQSGAEVKKPGASVKVSCKASGYIFSRYAIHWVRQAPGQGLEWMGWMNPISGNTDYAPNFQGRVTMTRDTSTSTVYMELSSLRSEDTAVYYCAKDGSQLAYLVEYFQHWGQGTLVTVSSASTKGPSVFPLAPSSKSTSGGTAALGCLVKDYFPEPVTVSWNSGALTSGVHTFPAVLQSSGLYSLSSVVTVPSSSLGTQTYICNVNHKPSNTKVDKKVEPKSCGGGGSGGGGSGGGGSGGGGSGGGG[not shown - about 200 residues]
# chain 2: B1 chain 2
# chain 3: DIQMTQSPSSLSASVGDRVTITCRASQVITNNLAWYQQKPGKAPKLLIYDASTLETGVPSRFSGSGSGTDFTLTISSLQPEDFATYYCQQSYTFPYTFGQGTKVEIKRTVAAPSVFIFPPSDEQLKSGTASVVCLLNNFYPREAKVQWKVDNALQSGNSQESVTEQDSKDSTYSLSSTLTLSKADYEKHKVYACEVTHQGLSSPVTKSFNRGECGGGGSGGGGSGGGGSGGGGSGGGGSGGGGSGGGGSGGGGSGGGGSGGGGSGGGGSGGGGSGGGGSGGGGSQVQLVQSGAEVKKPGASVKVSCKASGYIFSRYAIHWVRQAPGQGLEWMGWMNPISGNTDYAPNFQGRVTMTRDTSTSTVYMELSSLRSEDTAVYYCAKDGSQLAYLVEYFQHWGQGTLVTVSSASTKGPSVFPLAPSSKSTSGGTAALGCLVKDYFPEPVTVSWNSGALTSGVHTFPAVLQSSGLYSLSSVVTVPSSSLGTQTYICNVNHKPSNTKVDKKVEPKSCGGGGSGGGGSGGGGSGGGGSGGGGSGKTPDAMKAAMALEKKLNQALLDLHALGSARTDPHLCDFLETHFLDEEVKLIKKMGDHLTNLHRLGGPEAGLGEYLFERLTLRHD
# Biological target: SARS-CoV-2 Spike on pseudotyped virus (PsV) (SARS-CoV-2)
# Experiment: cell-based or functional assay
row,Binder,"Median IC50, SARS-CoV-2 PsV neutralization [µg/mL]"
1,B1,1.7
2,B2,3.5
3,B3,0.0013
4,B4,0.22
5,B5,0.37

# Biological target: SARS-CoV-2 Spike on pseudotyped virus (PsV) (SARS-CoV-2)
# Experiment: cell-based or functional assay
# Remark: another data set of the same source
row,Binder,"IC50 SARS-CoV2 PsV, MB [µg/mL]"
1,B1,1.7
2,B2,3.5
3,B3,0.0013
4,B4,0.22
5,B5,0.37
